In paper PMC4336329 (PLoS ONE, 2015):
About 2,200 (0.71%) of roughly 310,000 compounds showed an effect of 50% or more. Effects have a minus sign here. The list shows a part of the results.

target: human ether-à-go-go-related gene (hERG) potassium channel (human, UniProt Q12809); test: primary screen, population patch clamp on CHO cells stably expressing hERG
Sequence (Q12809 whole entry, looked up): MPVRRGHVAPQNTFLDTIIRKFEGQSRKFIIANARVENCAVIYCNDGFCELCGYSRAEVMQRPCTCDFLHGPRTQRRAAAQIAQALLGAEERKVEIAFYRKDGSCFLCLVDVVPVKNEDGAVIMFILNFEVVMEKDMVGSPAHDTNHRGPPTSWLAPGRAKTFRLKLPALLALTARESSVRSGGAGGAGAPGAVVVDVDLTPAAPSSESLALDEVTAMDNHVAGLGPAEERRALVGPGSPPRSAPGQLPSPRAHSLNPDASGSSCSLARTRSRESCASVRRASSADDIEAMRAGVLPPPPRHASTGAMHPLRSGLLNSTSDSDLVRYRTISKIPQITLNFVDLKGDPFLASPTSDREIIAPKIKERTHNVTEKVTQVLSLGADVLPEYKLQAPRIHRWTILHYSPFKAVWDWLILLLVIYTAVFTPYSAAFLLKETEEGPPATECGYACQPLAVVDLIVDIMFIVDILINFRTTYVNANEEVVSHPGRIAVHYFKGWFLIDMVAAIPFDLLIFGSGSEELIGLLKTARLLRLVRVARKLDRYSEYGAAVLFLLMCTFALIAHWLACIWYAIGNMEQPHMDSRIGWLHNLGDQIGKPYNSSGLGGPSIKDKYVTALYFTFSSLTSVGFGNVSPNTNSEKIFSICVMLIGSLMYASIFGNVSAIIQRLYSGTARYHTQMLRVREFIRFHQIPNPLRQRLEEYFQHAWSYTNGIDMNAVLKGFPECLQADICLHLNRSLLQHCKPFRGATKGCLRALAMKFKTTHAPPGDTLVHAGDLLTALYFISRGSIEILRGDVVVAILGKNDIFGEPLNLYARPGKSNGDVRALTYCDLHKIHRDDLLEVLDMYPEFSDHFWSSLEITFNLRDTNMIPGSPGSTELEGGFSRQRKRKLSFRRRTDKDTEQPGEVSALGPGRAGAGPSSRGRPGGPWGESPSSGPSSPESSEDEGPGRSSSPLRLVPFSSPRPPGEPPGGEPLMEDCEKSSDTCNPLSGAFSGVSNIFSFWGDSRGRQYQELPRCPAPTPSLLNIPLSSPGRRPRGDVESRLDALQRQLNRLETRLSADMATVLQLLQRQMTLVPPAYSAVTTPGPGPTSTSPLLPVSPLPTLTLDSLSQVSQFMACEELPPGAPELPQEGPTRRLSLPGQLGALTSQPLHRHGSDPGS

| Compound | hERG current change (%, negative = inhibition) at 1uM |
| --- | --- |
| COc1cc(C2C(C(=O)c3ccc(C)o3)=C(O)C(=O)N2Cc2ccccc2)ccc1O (stereo not shown) | 1.69% |
| CSc1ccc(C(=S)N2CCN(C)CC2)cc1 | 2.93% |
| Cc1ccc(-c2nc(CS(=O)CC(=O)NCc3ccc(F)cc3)c(C)o2)cc1 (stereo not shown) | 12.2% |
| COc1ccc(N(CC(=O)Nc2ccc3c(c2)OCO3)S(=O)(=O)c2ccccc2)c(OC)c1 | 5.6% |
| CC(C)(C)NC(=O)C(c1cccs1)N(Cc1ccc(F)cc1)C(=O)c1csnn1 (stereo not shown) | -1% |
| O=C(NCCN1CCN(c2ccccc2)CC1)c1cccn2c(=O)c3cc(Cl)ccc3nc12 | -15.6% |
| COCCCNC(=S)NCCNc1nc2cc(C)c(C)cc2cc1C#N | 6.77% |
| COCCN1CCN(C(=O)c2ccc3oc(CCc4ccccc4)nc3c2)CC1 | 2.2% |
| O=C(NC1CC1)C1=C[C@H](C2CC2)C[C@H](OCCCCO)O1 | 17.1% |
| O=c1cc(CN2CCOCC2)c2cc(Cl)ccc2o1 | 13.9% |
| CCN(CC)Cc1c(C(=O)N/N=C/c2c(Cl)cccc2Cl)nnn1-c1nonc1N | 4.75% |
| Cc1noc(C)c1CCC(=O)O | 13.2% |
| COc1ccc(-c2cc(C(=O)Nc3cc(C)on3)c3ccccc3n2)c(OC)c1 | 5.51% |
| Cc1ccc2[nH]c(=O)c(CN(Cc3cccs3)C(=S)NCC3CCCO3)cc2c1 (stereo not shown) | 20.5% |
| COC(=O)/C(=C/c1c[nH]c2ccccc12)NC(C)=O | 9.57% |
| CCCS(=O)(=O)c1c(S(=O)(=O)CCC)c2cc(CC)ccn2c1C(=O)OC | 4.8% |
| O=C(Nc1ccc(Cl)c(NC(=O)c2cccs2)c1)c1ccco1 | 10.3% |
| COC(=O)c1ccc(C(=O)OC)c(NC(=O)CSCc2ccccc2Br)c1 | 13.1% |
| Cc1ccc(S(=O)(=O)N2CCCCC2)cc1NC(=O)c1cc(=O)[nH]c2ccccc12 | 1.76% |
| Cc1cccc(OCC(=O)Nc2nc3ccc([N+](=O)[O-])cc3s2)c1 | 13.4% |
| O=C(O)c1ncc(-c2ccccc2)cn1 | 4.62% |
| COc1ccc(CCN2C(=S)N(C)C(=O)C2CC(=O)Nc2ccc(F)cc2)cc1 (stereo not shown) | 10% |
| OC(C#CCN1CCOCC1)c1cccs1 (stereo not shown) | 10.4% |
| NC(=S)NNc1cc(Cl)cc(Cl)c1 | -2.25% |
| Cc1cc(-c2cccs2)nc(-n2cccc2)n1 | 3.87% |
